Experimental data reported in the supplement of paper PMC10369915.
This is one part of the list. Cut-off read from the data, not from the text of the source: active = 3.2 or more and inactive = the rest. Most of these values are background signal.

What was measured:
Assay in all cases: enrichment score (SH2-bound / input frequency) (ratio); bacterial display of known human phosphotyrosine sites (pTyr-Var adds point mutants) read by sequencing; higher = stronger binding; tyrosines were phosphorylated by kinases first
Settings in all cases: peptide library: pTyr-Var
[1] = molecular target: SHP2 C-SH2 domain E139D
[2] = molecular target: SHP2 C-SH2 domain wild-type
[3] = molecular target: SHP2 N-SH2 domain L43F
[4] = molecular target: SHP2 N-SH2 domain T42A
[5] = molecular target: SHP2 N-SH2 domain T52S
[6] = molecular target: SHP2 N-SH2 domain wild-type
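Note: displayed peptides selected on beads carrying the immobilized SH2 domain, with library peptides lacking any tyrosine serving as negative controls.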

| Binder | enrichment score [1] | enrichment score [2] | enrichment score [3] | enrichment score [4] | enrichment score [5] | enrichment score [6] |
| --- | --- | --- | --- | --- | --- | --- |
| IFLENYNAGTY [CFI_Y421_H418L] | inactive: 1.16 | inactive: 1.09 | inactive: 1.22 | inactive: 0.995 | inactive: 1.24 | inactive: 1.12 |
| IFLENYNAGTF [CFI_Y421_H418L_YF] | inactive: 0.797 | inactive: 0.864 | inactive: 0.871 | inactive: 0.848 | inactive: 0.937 | inactive: 0.821 |
| LFHENYNAGTY [CFI_Y421_I416L] | inactive: 0.747 | inactive: 0.887 | inactive: 1.06 | inactive: 1.01 | inactive: 0.93 | inactive: 1.2 |
| LFHENYNAGTF [CFI_Y421_I416L_YF] | inactive: 1.17 | inactive: 0.865 | inactive: 0.966 | inactive: 0.869 | inactive: 0.893 | inactive: 0.8 |
| AVLQPYIFVAT [CFTR_Y1014] | inactive: 0.728 | inactive: 1.02 | inactive: 0.735 | inactive: 0.857 | inactive: 0.873 | inactive: 1.01 |
| ICGVSYDEYRY [CFTR_Y512_F508C] | inactive: 0.902 | inactive: 1.12 | inactive: 0.813 | inactive: 0.924 | inactive: 0.788 | inactive: 1.02 |
| VFGVSYDEYRY [CFTR_Y512_I507V] | inactive: 1.01 | inactive: 0.857 | inactive: 1.06 | inactive: 1.09 | inactive: 1.23 | inactive: 1.09 |
| IFGVSYDEFRF [CFTR_Y512_YF] | inactive: 1.41 | inactive: 1.03 | inactive: 0.943 | inactive: 1.55 | inactive: 1.34 | inactive: 0.875 |
| VSYDEYRYRSV [CFTR_Y515] | inactive: 0.754 | inactive: 0.565 | inactive: 0.602 | inactive: 0.663 | inactive: 0.56 | inactive: 0.683 |
| VSYGEYRYRSV [CFTR_Y515_D513G] | inactive: 0.623 | inactive: 0.813 | inactive: 0.732 | inactive: 0.531 | inactive: 0.505 | inactive: 0.704 |
| VSFDEYRFRSV [CFTR_Y515_YF] | inactive: 0.801 | inactive: 0.663 | inactive: 0.871 | inactive: 0.553 | inactive: 0.663 | inactive: 0.683 |
| YGEYRYRSVIK [CFTR_Y517_D513G] | inactive: 0.831 | inactive: 0.764 | inactive: 0.781 | inactive: 0.694 | inactive: 0.744 | inactive: 0.78 |
| FDEFRYRSFIK [CFTR_Y517_V520F_YF] | inactive: 0.756 | inactive: 0.682 | inactive: 0.627 | inactive: 0.595 | inactive: 0.6 | inactive: 0.473 |
| FDEFRYRSVIK [CFTR_Y517_YF] | inactive: 0.689 | inactive: 0.56 | inactive: 0.475 | inactive: 0.595 | inactive: 0.469 | inactive: 0.645 |
| EEVKAYLDFRE [CHAC2_Y78] | inactive: 0.813 | inactive: 0.844 | inactive: 0.793 | inactive: 0.778 | inactive: 0.61 | inactive: 1.05 |
| NIQKKYYRAIL [CHD7_Y1217] | inactive: 1.12 | inactive: 0.761 | inactive: 0.95 | inactive: 1.01 | inactive: 0.764 | inactive: 1.24 |
| NIRKKYYRAIL [CHD7_Y1217_Q1214R] | inactive: 0.435 | inactive: 0.304 | inactive: 0.412 | inactive: 0.331 | inactive: 0.295 | inactive: 0.511 |
| NIRKKYFRAIL [CHD7_Y1217_Q1214R_YF] | inactive: 0.386 | inactive: 0.341 | inactive: 0.249 | inactive: 0.28 | inactive: 0.253 | inactive: 0.267 |
| IQKKYYRAILE [CHD7_Y1218] | inactive: 1.25 | inactive: 1.12 | inactive: 1.48 | inactive: 1.36 | inactive: 1.19 | inactive: 1.48 |

| Binder | enrichment score [1] | enrichment score [2] | enrichment score [3] | enrichment score [4] | enrichment score [5] | enrichment score [6] |
| --- | --- | --- | --- | --- | --- | --- |
| CCNHPYLINGA [CHD7_Y1256] | inactive: 1.4 | inactive: 1.23 | inactive: 1.23 | inactive: 1.01 | inactive: 1.35 | inactive: 0.954 |
| RCNHPYLINGA [CHD7_Y1256_C1251R] | inactive: 1.68 | inactive: 1.72 | inactive: 1.67 | inactive: 1.26 | inactive: 1.58 | inactive: 1.6 |
| CCNHPYRINGA [CHD7_Y1256_L1257R] | inactive: 1.25 | inactive: 1.21 | inactive: 1.17 | inactive: 1.1 | inactive: 1.36 | inactive: 1.33 |
| DHCNQYEQQKM [CHD7_Y75_Y72C] | inactive: 0.868 | inactive: 0.781 | inactive: 0.792 | inactive: 0.737 | inactive: 0.917 | inactive: 0.841 |
| CGTPTYLAPEV [CHEK2_Y390] | inactive: 0.889 | inactive: 1.16 | inactive: 0.771 | inactive: 0.869 | inactive: 0.825 | inactive: 1.11 |
| EEGENYQKGER [CHGB_Y173] | inactive: 0.432 | inactive: 0.457 | inactive: 0.477 | inactive: 0.393 | inactive: 0.429 | inactive: 0.56 |
| EEGENYQKGEQ [CHGB_Y173_R178Q] | inactive: 0.48 | inactive: 0.576 | inactive: 0.39 | inactive: 0.521 | inactive: 0.411 | inactive: 0.584 |
| SRFQFYFQQKG [CHKB_Y381] | inactive: 0.723 | inactive: 0.806 | inactive: 0.938 | inactive: 0.792 | inactive: 0.727 | inactive: 0.719 |
| SLFQFYFQQKG [CHKB_Y381_R377L] | active: 3.93 | active: 3.56 | active: 3.96 | active: 3.3 | active: 3.45 | active: 3.88 |
| ETKENYGKTLK [CHL1_Y291] | inactive: 0.454 | inactive: 0.328 | inactive: 0.713 | inactive: 0.295 | inactive: 0.326 | inactive: 0.56 |
| TINPIHEHVGY [CHN1_Y143_Y143H] | inactive: 1.08 | inactive: 1.05 | inactive: 1.17 | inactive: 0.911 | inactive: 1.08 | inactive: 1.19 |
| HEHVGYTTLNR [CHN1_Y148_Y143H] | active: 3.7 | active: 7.33 | inactive: 1.29 | inactive: 2.66 | inactive: 1.24 | inactive: 1.5 |
| YAFQLYDLDRD [CHP2_Y123] | inactive: 1.18 | inactive: 2.87 | inactive: 1.38 | inactive: 2.07 | inactive: 1.67 | inactive: 1.02 |
| FAFQLYDLDRD [CHP2_Y123_YF] | inactive: 1.94 | inactive: 1.51 | inactive: 2.07 | inactive: 1.84 | inactive: 2.09 | inactive: 1.84 |
| FQEKGYNKEPR [CHRND_Y38_L42P] | inactive: 0.879 | inactive: 0.859 | inactive: 0.859 | inactive: 0.99 | inactive: 0.692 | inactive: 0.902 |
| MNLLGYRQVRS [CHST4_Y359_H361Q] | inactive: 0.492 | inactive: 0.502 | inactive: 0.426 | inactive: 0.331 | inactive: 0.423 | inactive: 0.566 |
| EACRSYSHVVL [CHST6_Y168] | inactive: 0.681 | inactive: 0.913 | inactive: 0.618 | inactive: 1.15 | inactive: 0.714 | inactive: 0.604 |
| LQLLGYRPVYS [CHST6_Y358] | inactive: 1.18 | inactive: 1.26 | inactive: 1.2 | inactive: 1.12 | inactive: 1.42 | inactive: 1.31 |
